The other results are listed elsewhere or left out.
How the values were obtained:
Assay in all cases: glycan array binding signal (z-score within array); higher = stronger binding
Conditions in all cases: glycan notation: IUPAC condensed, linker removed
GlcNAc(b1-3)Man = target: GlcNAc(b1-3)Man
Outline: (§1)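 Columns mapping to the same glycan were averaged after glycan names were converted to IUPAC-condensed notation. The data come from 3228 arrays in the Consortium for Functional Glycomics database, limited to those with an available protein sequence. Binding is reported as a within-array Z-score averaged across arrays of one protein sequence and across linkers.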

[1] = target: GlcNAc(b1-3)[GlcNAc(b1-4)][GlcNAc(b1-6)]GlcNAc
Outline: as §1

[2] = target: GlcNAc(b1-3)[GlcNAc(b1-6)]Gal(b1-4)GlcNAc
Outline: as §1

[3] = target: GlcNAc(b1-3)[GlcNAc(b1-6)]GalNAc
Outline: as §1

[4] = target: GlcNAc(b1-4)Gal(b1-4)GlcNAc
Outline: as §1

GlcNAc(b1-4)GlcNAc = target: GlcNAc(b1-4)GlcNAc
Outline: as §1

[5] = target: GlcNAc(b1-4)GlcNAc(b1-4)GlcNAc
Outline: as §1

[6] = target: GlcNAc(b1-4)GlcNAc(b1-4)GlcNAc(b1-4)GlcNAc(b1-4)GlcNAc
Outline: as §1

[7] = target: GlcNAc(b1-4)GlcNAc(b1-4)GlcNAc(b1-4)GlcNAc(b1-4)GlcNAc(b1-4)GlcNAc
Outline: as §1

[8] = target: GlcNAc(b1-4)[GlcNAc(b1-6)]GalNAc
Outline: as §1

[9] = target: GlcNAc(b1-6)Gal(b1-4)GlcNAc
Outline: as §1

GlcNAc(b1-6)GalNAc = target: GlcNAc(b1-6)GalNAc
Outline: as §1

[10] = target: GlcNAc6S(b1-3)Gal(b1-4)GlcNAc
Outline: as §1

Kdn(a2-3)Gal(b1-3)GalNAc = target: Kdn(a2-3)Gal(b1-3)GalNAc
Outline: as §1

Kdn(a2-3)Gal(b1-3)GlcNAc = target: Kdn(a2-3)Gal(b1-3)GlcNAc
Outline: as §1

Kdn(a2-3)Gal(b1-4)Glc = target: Kdn(a2-3)Gal(b1-4)Glc
Outline: as §1

Kdn(a2-3)Gal(b1-4)GlcNAc = target: Kdn(a2-3)Gal(b1-4)GlcNAc
Outline: as §1

[11] = target: Kdn(a2-3)Gal(b1-4)[Fuc(a1-3)]GlcNAc
Outline: as §1

Kdn(a2-6)Gal(b1-4)GlcNAc = target: Kdn(a2-6)Gal(b1-4)GlcNAc
Outline: as §1

[12] = target: Man(a1-2)Man(a1-2)Man(a1-3)Man
Outline: as §1

[13] = target: Man(a1-2)Man(a1-2)Man(a1-6)[Man(a1-3)]Man
Outline: as §1

Man(a1-2)Man(a1-3)Man = target: Man(a1-2)Man(a1-3)Man
Outline: as §1

[14] = target: Man(a1-2)Man(a1-3)[Man(a1-2)Man(a1-6)]Man
Outline: as §1

[15] = target: Man(a1-2)Man(a1-3)[Man(a1-2)Man(a1-6)]Man(a1-6)[Man(a1-2)Man(a1-2)Man(a1-3)]Man
Outline: as §1

[16] = target: Man(a1-2)Man(a1-3)[Man(a1-2)Man(a1-6)]Man(a1-6)[Man(a1-2)Man(a1-2)Man(a1-3)]Man(b1-4)GlcNAc(b1-4)GlcNAc
Outline: as §1

[17] = target: Man(a1-2)Man(a1-3)[Man(a1-6)]Man(a1-6)[Man(a1-2)Man(a1-3)]Man(b1-4)GlcNAc(b1-4)GlcNAc
Outline: as §1

[18] = target: Man(a1-2)Man(a1-6)[Man(a1-3)]Man(a1-6)[Man(a1-2)Man(a1-2)Man(a1-3)]Man
Outline: as §1

[19] = target: Man(a1-2)Man(a1-6)[Man(a1-3)]Man(a1-6)[Man(a1-2)Man(a1-2)Man(a1-3)]Man(b1-4)GlcNAc(b1-4)GlcNAc
Outline: as §1

Man(a1-3)[Man(a1-6)]Man = target: Man(a1-3)[Man(a1-6)]Man
Outline: as §1

[20] = target: Man(a1-3)[Man(a1-6)]Man(a1-6)[Man(a1-2)Man(a1-3)]Man(b1-4)GlcNAc(b1-4)GlcNAc
Outline: as §1

[21] = target: Man(a1-3)[Man(a1-6)]Man(a1-6)[Man(a1-3)]Man
Outline: as §1

[22] = target: Man(a1-3)[Man(a1-6)]Man(a1-6)[Man(a1-3)]Man(b1-4)GlcNAc(b1-4)GlcNAc
Outline: as §1

[23] = target: Man(a1-3)[Man(a1-6)]Man(b1-4)GlcNAc(b1-4)GlcNAc
Outline: as §1

[24] = target: Man(a1-3)[Man(a1-6)]Man(b1-4)GlcNAc(b1-4)[Fuc(a1-6)]GlcNAc
Outline: as §1

Man(a1-6)Man = target: Man(a1-6)Man
Outline: as §1

Man(b1-4)GlcNAc = target: Man(b1-4)GlcNAc
Outline: as §1

MurNAc(b1-4)GlcNAc = target: MurNAc(b1-4)GlcNAc
Outline: as §1

Neu5Ac(a2-3)Gal = target: Neu5Ac(a2-3)Gal
Outline: as §1

B1: GS7807P-bth-537-23-537 (Bacteroides thetaiotaomicron) (protein)
chain: NYENINSNPYEAPDLSADGYALGSAMNNLAGCVVSPDVNTAQFTDCLLGGPLGGYFADSNAGFTETISNFNPKDDWSRVFLKSDKIIPTLYSNLTQVKLVSQNTNDPVPYAIAQVIKVAAMHRVTDAFGPIPYSQIGANGEIATPYDSQEVTYNTFFDELNAAIATLNENSNEQLVPTADYIYKGDVKKWIRFANSLKLRLAIRIAYANPVKAQQMAEEAVNPANGGVIESNADNATWNYFETSQNPIYVATRYNQVQTSDHGGVPCLTGGDTHAAADIICYMNGYKDNRREKFFTKSEWAGQDYVGMRRGIVIPELKTTGHKYSGVNIAPTSPLYWMNAAEVAFLRAEGQAVFNFSMGGTAESFYNQGIRLSFEQWGADGVEDYLKDDVNKPTAYTDPAGTNTYQNALSNITIKWNDSADKEEKQERIIVQKWIANWQLGNEAWADFRRTGYPKLIPVKENKSGGVVDSEKGARRMPYPLDEFVSNKANVEYAIANYLHGADNMATDVWWASKK
GlcNAc(b1-3)Man
  glycan array binding signal (z-score): -0.38
[1]
  glycan array binding signal (z-score): -0.249
[2]
  glycan array binding signal (z-score): -0.37
[3]
  glycan array binding signal (z-score): -0.355
[4]
  glycan array binding signal (z-score): -0.392
GlcNAc(b1-4)GlcNAc
  glycan array binding signal (z-score): -0.39
[5]
  glycan array binding signal (z-score): -0.326
[6]
  glycan array binding signal (z-score): -0.365
[7]
  glycan array binding signal (z-score): -0.364
[8]
  glycan array binding signal (z-score): -0.32
[9]
  glycan array binding signal (z-score): 0.132
GlcNAc(b1-6)GalNAc
  glycan array binding signal (z-score): 0.055
[10]
  glycan array binding signal (z-score): 1.22
Kdn(a2-3)Gal(b1-3)GalNAc
  glycan array binding signal (z-score): 0.603
Kdn(a2-3)Gal(b1-3)GlcNAc
  glycan array binding signal (z-score): 1.96
Kdn(a2-3)Gal(b1-4)Glc
  glycan array binding signal (z-score): 0.899
Kdn(a2-3)Gal(b1-4)GlcNAc
  glycan array binding signal (z-score): 0.259
[11]
  glycan array binding signal (z-score): 0
Kdn(a2-6)Gal(b1-4)GlcNAc
  glycan array binding signal (z-score): -0.238
[12]
  glycan array binding signal (z-score): -0.398
[13]
  glycan array binding signal (z-score): -0.343
Man(a1-2)Man(a1-3)Man
  glycan array binding signal (z-score): -0.348
[14]
  glycan array binding signal (z-score): -0.381
[15]
  glycan array binding signal (z-score): -0.267
[16]
  glycan array binding signal (z-score): -0.296
[17]
  glycan array binding signal (z-score): -0.372
[18]
  glycan array binding signal (z-score): -0.35
[19]
  glycan array binding signal (z-score): -0.293
Man(a1-3)[Man(a1-6)]Man
  glycan array binding signal (z-score): -0.357
[20]
  glycan array binding signal (z-score): 2
[21]
  glycan array binding signal (z-score): -0.37
[22]
  glycan array binding signal (z-score): -0.052
[23]
  glycan array binding signal (z-score): -0.365
[24]
  glycan array binding signal (z-score): 0.048
Man(a1-6)Man
  glycan array binding signal (z-score): -0.366
Man(b1-4)GlcNAc
  glycan array binding signal (z-score): -0.38
MurNAc(b1-4)GlcNAc
  glycan array binding signal (z-score): -0.409
Neu5Ac(a2-3)Gal
  glycan array binding signal (z-score): -0.341

Source: the supplement of paper PMC8728848
